In all, about 420,000 compounds went through this assay and about 64,000 (15%) were called active. The inconclusive results got no clear call from the source; some entries with a clear call stand among them for comparison. Calls come from the whole dose curve; as a rule, active = well fitted inhibition curve with a large enough effect; inconclusive = small, poorly fitted or top-dose-only effect; inactive = flat fitted curve, though single readings scatter. No potency is given beside an inconclusive call; the fits are too rough.
Assay: qHTS for Inhibitors of human tyrosyl-DNA phosphodiesterase 1 (TDP1): qHTS in cells in absence of CPT; note: nearly all actives have a fitted effect of over 55% in size
Settings: DT40 Tdp1-/- hTDP1 cells, no CPT, ATP luminescence, 48 h; activity change, negative = growth inhibition: at 46.2 µM (top of the series) unless noted
Procedure, shortened: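 Chicken DT40 Tdp1-/- cells complemented with human TDP1, screened without camptothecin (DMSO vehicle only), 400 cells/well. Compounds pin-transferred, cells incubated at 37 °C for at least 48 hr. Growth read as ATP-dependent luminescence (CellTiter-Glo, 30 min at RT).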
% is set by controls: 0 for no effect and ±100 for the full control effect; potency is the fitted concentration of half-maximal effect; tags give direction and shape of the fitted curve.

Structure (SMILES) | Potency | activity change, negative = growth inhibition
O=C(NCCCN=C1NS(=O)(=O)c2ccccc21)c1ccc(S(=O)(=O)N2CCCCC2)cc1 | inconclusive [inhibitor, single point] | –
O=C(Nc1ccc(Cl)cc1)C1=Cc2ccccc2OC1 | active: 23.1 µM | –
COc1ccc(N2C(=O)CC(c3ccccc3)CC2=O)cc1 | – | inactive: -12.3%
CN(C)c1cccc(C(=O)Nc2nnc(Cc3ccccc3)s2)c1 | inconclusive [inhibitor, partial curve] | –
COc1cc(C(=O)N2CCC2(C)C(=O)O)cc(OC)c1OC (stereo not drawn) | – | inactive: -12.4%
CCCn1cc(CN2CCCC(C(=O)c3cccc(OC(C)C)c3)C2)c(C)n1 (stereo not drawn) | inconclusive [inhibitor, partial curve] | –
CCCCC(=O)Oc1ccc2oc(-c3ccc(OC)cc3)cc(=O)c2c1 | – | inactive: -0.169%
C[C@@H]1NS(=O)(=O)[C@H]2C[C@@H]3C=C[C@]2(O3)[C@H]1OC(=O)c1ccc(C(C)(C)C)cc1 | active: 16.4 µM | –
Cc1cccc(-c2nc3scc(CCNS(=O)(=O)c4c(C)noc4C)n3n2)c1 | inconclusive [inhibitor, single point] | –
Cc1ccc(F)cc1NC(=O)CCc1c(C)nn(-c2ccc(N3CCCC3)nn2)c1C | inconclusive [inhibitor, single point] | –
O=C(NCc1ccccn1)c1cccc(S(=O)(=O)N2CCc3ccccc32)c1 | – | inconclusive: -33.8% [inhibitor]
CC(=O)c1ccc(NC(=O)Cn2cnc3nc4c(cc3c2=O)CC(C)CC4)cc1 (stereo not drawn) | – | inactive: -5.32%
CCOc1cccc(C2c3[nH]c4ccccc4c3CCN2C(=O)c2ccccc2F)c1 (stereo not drawn) | active: 16.4 µM | –
COc1ccc(S(=O)(=O)N(C)C[C@H]2Oc3ncc(C#CC4(O)CCCC4)cc3C(=O)N([C@@H](C)CO)C[C@@H]2C)cc1 | inconclusive [inhibitor, single point] | –
Cc1cc(=S)[nH]c2ccccc12 | inconclusive [inhibitor, single point] | –
COCCn1c(=O)[nH]c2cc(C(=O)N3CCN(c4cccc(C(F)(F)F)c4)CC3)ccc2c1=O | active: 13 µM | –
Cc1ccc(S(=O)(=O)N2CCOCC2)cc1NC(=O)COc1cccc(Oc2ccccc2)c1 | inconclusive [inhibitor, single point] | –
CC(C)c1nc(SCC(=O)N2CCCCC2)c2c(=O)n(C)c(=O)n(C)c2n1 | inconclusive [inhibitor, single point] | –
CCOc1ccccc1C(=O)Nc1ccc(S(=O)(=O)Nc2onc(C)c2C)cc1 | – | inactive: 6.85%
CC(OC(=O)CCCN=C1NS(=O)(=O)c2ccccc21)C(=O)Nc1ccc(F)c(F)c1F (stereo not drawn) | – | inactive: -10.3%
NC(=NCc1ccco1)NC(=O)c1ccc(Cl)cc1 | – | inactive: -16.9%
CCn1c(SCC(=O)Nc2ccc(N3CCOCC3)c(Cl)c2)nnc1-c1ccc(N)cc1 | inconclusive [inhibitor, single point] | –

Structure (SMILES) | Potency | activity change, negative = growth inhibition
O=C1/C(=C\c2ccc([N+](=O)[O-])cc2)CS(=O)(=O)C/C1=C/c1ccc([N+](=O)[O-])cc1 | active: 0.0231 µM | –
CCOC(=O)c1c(C)[nH]c(C)c1S(=O)(=O)NCc1cc(C)ccc1C | – | inactive: 16.1%
Cc1ccccc1CN1CCN(c2ccc(S(=O)(=O)N3CCCC3)cn2)CC1 | inconclusive [inhibitor, single point] | –
CCOc1cc(CNC(=O)c2ccc(Cn3c(=O)c4cccn4c4cccnc43)cc2)ccc1OC | inconclusive [inhibitor, full curve] | –
Cc1cccc(C(=O)OC(C)C(=O)Nc2ccc(S(=O)(=O)N3CCCC3)cc2)c1O (stereo not drawn) | inconclusive [inhibitor, single point] | –
N#C/C(=C\c1cc2ccccc2nc1N1CCCCC1)C(N)=O | inconclusive [inhibitor, single point] | –
CCOC(=O)c1cnc2cc(C(F)(F)F)ccc2c1N1CCN(c2cccc(Cl)c2)CC1 | active: 23.1 µM | –
Cc1ccc(NC(=O)CSc2nc3ccc(NC(=O)c4cccs4)cc3s2)cc1 | inconclusive [inhibitor, full curve] | –
O=C(c1ccncc1)N1CCC[C@@]2(CCN(Cc3cc(C(F)(F)F)cc(C(F)(F)F)c3)C2)C1 | inconclusive [inhibitor, single point] | –
CCSC1=NCCN1C(=O)c1ccc(S(=O)(=O)N(C)C)cc1 | – | inactive: 6.52%
Cc1cc2nc(C)n(CCCNC(=O)Nc3ccccc3)c2cc1C | inconclusive [inhibitor, single point] | –
C[C@H]1CN([C@@H](C)CO)C(=O)CCCn2cc(nn2)CO[C@@H]1CN(C)S(=O)(=O)c1ccccc1C#N | – | inactive: -18.8%
O=C(NCCCN1CCN(c2ccccc2)CC1)C1CCCN(c2ncnc3c2nc2n3CCCCC2)C1 (stereo not drawn) | inconclusive [inhibitor, single point] | –
Cc1nn(-c2cc(N3CCCCC3)ccc2[N+](=O)[O-])c(=O)c2ccccc12 | inconclusive [inhibitor, single point] | –
Nc1ncnc2c1ncn2[C@@H]1O[C@H](CNC(=O)[C@@H]2CCN2)[C@@H](O)[C@H]1O | – | inactive: -8.56%
CC(=O)N1c2ccc(S(=O)(=O)N3CCCC3C(=O)NCc3ccccc3Cl)cc2CC1C (stereo not drawn) | inconclusive [inhibitor, single point] | –
CCN1CCN(c2nc(N)c([N+](=O)[O-])c(Nc3cccc(C)c3)n2)CC1 | inconclusive [inhibitor, single point] | –
COc1ccccc1CNS(=O)(=O)c1cc2c3c(c1)C(C)C(=O)N3CCC2 (stereo not drawn) | inconclusive [inhibitor, partial curve] | –
C=CCOc1ccc(C2=NOC(C(=O)Nc3ccc4c(c3)OCCO4)C2)cc1OC (stereo not drawn) | – | inactive: -27.8%
CCN(Cc1ccccc1)C(=O)CN1C(=O)COc2ccc(S(=O)(=O)N3CCOCC3)cc21 | – | inactive: -25.9%
COc1ccc(N(C(=O)/C=C/c2ccccc2)C2=CC3CCC(C2)N3C)cc1 (stereo not drawn) | inconclusive [inhibitor, single point] | –

Source: PubChem BioAssay AID686978 (National Center for Advancing Translational Sciences (NCATS), 2013)
